The labels stand for the following.
B1: SHF_HUMAN_201 (peptide)
chain: DERPPEEYDQPWEWK
B2: SLAF5_HUMAN_279_YA (peptide)
chain: AASKKTIYTAIMASR
B3: SIG10_HUMAN_667 (peptide)
chain: ESQEELHYATLNFPG
B4: SNX9_HUMAN_239_YA (peptide)
chain: IPIIVGDYGPMWVAP
B5: SRC_HUMAN_439 (peptide)
chain: TAPEAALYGRFTIKS
B6: SPTC1_HUMAN_164 (peptide)
chain: KTEEAIIYSYGFATI
B7: SKAP1_HUMAN_295 (peptide)
chain: TRRKGVDYASYYQGL
B8: SHPS1_HUMAN_453 (peptide)
chain: EPNNHTEYASIQTSP
B9: AAK1_HUMAN_234 (peptide)
chain: APEMVNLYSGKIITT
B10: SNX9_HUMAN_239 (peptide)
chain: IPIIVGDYGPMWVYP
B11: SKAP1_HUMAN_298 (peptide)
chain: KGVDYASYYQGLWDC
B12: SRC_HUMAN_338_YA (peptide)
chain: VVSEEPIYIVTEAMS
B13: SIT1_HUMAN_90_YA (peptide)
chain: SVEEVPLYGNLHALQ
B14: SNCA_HUMAN_136 (peptide)
chain: SEEGYQDYEPEAGGG
B15: SHIP2_HUMAN_1135 (peptide)
chain: KTLSEVDYAPAGPAR
B16: SPTB2_HUMAN_1805_YA (peptide)
chain: TQILAASYELHKFAH
B17: SLAF6_HUMAN_309 (peptide)
chain: ENDTITIYSTINHSK
B18: SQSTM_HUMAN_148 (peptide)
chain: KCSVCPDYDLCSVCE
B19: AVIL_HUMAN_758 (peptide)
chain: SNDSEPKYYPIAVLL

Some of the results follow. Cut-off read from the data, not from the text of the source: active = 3.2 or more and inactive = the rest. Most of these values are background signal.
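Note: displayed peptides selected on beads carrying the immobilized SH2 domain, with library peptides lacking any tyrosine serving as negative controls.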

The target in one test is SHP2 C-SH2 domain E139D. Put plainly: enrichment score (SH2-bound / input frequency) (ratio); bacterial display of known human phosphotyrosine sites (pTyr-Var adds point mutants) read by sequencing; higher = stronger binding; tyrosines were phosphorylated by kinases first. To be noted: peptide library: Human pTyr.
Consider B1, for which the enrichment score was inactive: 1.
Still for that read-out and setting: next, B2: active: 4.43; B3: active: 3.91.
The same measure, in the same setting: next, B4: inactive: 0.68; B5: inactive: 1.68.
On the same count and under the same terms, under B6 stands inactive: 1.41.
In the case of B7, the enrichment score was inactive: 1.
The same measure, in the same setting: next, B8: active: 4.83; B9: inactive: 1.04; B10: inactive: 1.07.
Same read-out and setting: next, B11: inactive: 1.44; B12: inactive: 0.692; B13: inactive: 0.942.
With B14, the enrichment score is inactive: 0.978.
Regarding B15, the enrichment score was inactive: 1.24.
Still for that read-out and setting: next, B16: inactive: 1.02; B17: active: 6.35; B18: inactive: 0.669.
The same measure, in the same setting: under B19 stands inactive: 1.31.

In a further test the target is SHP2 C-SH2 domain wild-type. The test is described as above. To be noted: peptide library: Human pTyr.
Turning to B1, the enrichment score is inactive: 0.998.
As to B2, the enrichment score is active: 7.9.
On the same count and under the same terms, under B3 stands active: 6.75; under B4, inactive: 0.864.
On the same count and under the same terms, next, B5: inactive: 0.793; B6: inactive: 1.44; B7: inactive: 0.868.
Still for that read-out and setting: under B8 stands active: 9.9; under B9, inactive: 0.748.
For B10, the enrichment score was inactive: 1.04.
Consider B11, for which the enrichment score is inactive: 1.21.
Consider B12, for which the enrichment score was inactive: 0.664.
The same measure, in the same setting: next, B13: inactive: 0.606; B14: inactive: 0.998; B15: inactive: 0.634.
Still for that read-out and setting: next, B16: inactive: 0.936; B17: active: 10.9.
Still for that read-out and setting: next, B18: inactive: 0.658; B19: inactive: 1.03.

The target in the next test is SHP2 N-SH2 domain L43F. Described as above. To be noted: peptide library: Human pTyr.
For the molecule B1, the enrichment score was inactive: 1.14.
On the same count and under the same terms, under B2 stands inactive: 1.51; under B3, active: 23.8; under B4, inactive: 0.711.
With B5, the enrichment score is inactive: 1.01.
Still for that read-out and setting: under B6 stands inactive: 1.41; under B7, inactive: 0.867; under B8, inactive: 0.707.
As to B9, the enrichment score was inactive: 0.51.
The same measure, in the same setting: under B10 stands inactive: 1.14.
On the same count and under the same terms, next, B11: inactive: 0.992.
The same measure, in the same setting: under B12 stands inactive: 0.765; under B13, inactive: 0.599; under B14, inactive: 1.13.
On to B15, for which the enrichment score was inactive: 1.05.
Still for that read-out and setting: under B16 stands inactive: 0.883; under B17, inactive: 1.05.
The same measure, in the same setting: next, B18: inactive: 0.642; B19: inactive: 1.09.

A further test addresses SHP2 N-SH2 domain T42A. Described as above. Conditions: peptide library: Human pTyr.
Turning to B1, the enrichment score is inactive: 0.986.
On the same count and under the same terms, under B2 stands active: 3.37.
Same read-out and setting: next, B3: active: 12; B4: inactive: 0.628.
B5: the enrichment score is inactive: 1.09.
On the same count and under the same terms, next, B6: inactive: 1.13; B7: inactive: 0.832.
On the same count and under the same terms, next, B8: inactive: 1.3.
The same measure, in the same setting: under B9 stands inactive: 0.736; under B10, inactive: 1.38.
As for B11, the enrichment score is inactive: 1.18.
Turning to B12, the enrichment score was inactive: 1.02.
Still for that read-out and setting: next, B13: inactive: 0.567; B14: inactive: 0.893.
For B15, the enrichment score was inactive: 0.492.
On to B16, for which the enrichment score was inactive: 0.863.
Same read-out and setting: next, B17: inactive: 1.33; B18: inactive: 0.649.
Still for that read-out and setting: under B19 stands inactive: 1.12.

A further test concerns the target SHP2 N-SH2 domain T52S. Described as above. To be noted: peptide library: Human pTyr.
B1: the enrichment score is inactive: 1.13.
The same measure, in the same setting: next, B2: inactive: 1.24.
Same read-out and setting: next, B3: active: 15.4; B4: inactive: 0.838.
The same measure, in the same setting: next, B5: inactive: 1.18.
Take B6: the enrichment score was inactive: 1.61.
The same measure, in the same setting: next, B7: inactive: 1.2.
Same read-out and setting: next, B8: inactive: 0.579.
The same measure, in the same setting: under B9 stands inactive: 0.694; under B10, inactive: 1.04.
With B11, the enrichment score is inactive: 1.36.
The same measure, in the same setting: next, B12: inactive: 0.644.
The same measure, in the same setting: under B13 stands inactive: 0.603.
For the molecule B14, the enrichment score was inactive: 1.09.
Still for that read-out and setting: next, B15: inactive: 0.635.
On the same count and under the same terms, under B16 stands inactive: 0.925; under B17, inactive: 1.11.
Still for that read-out and setting: under B18 stands inactive: 0.801; under B19, inactive: 1.42.

For a further test, the target named is SHP2 N-SH2 domain wild-type. The test is described as above. Conditions: peptide library: Human pTyr.
Turning to B1, the enrichment score was inactive: 1.19.
For B2, the enrichment score was inactive: 1.17.
As for B3, the enrichment score is active: 7.86.
Still for that read-out and setting: under B4 stands inactive: 0.612; under B5, inactive: 0.916; under B6, inactive: 1.87.
On the same count and under the same terms, under B7 stands inactive: 1.86; under B8, inactive: 0.766.
Same read-out and setting: under B9 stands inactive: 0.611; under B10, inactive: 1.13.
Regarding B11, the enrichment score is inactive: 1.4.
On the same count and under the same terms, next, B12: inactive: 0.632; B13: inactive: 0.73; B14: inactive: 1.08.
Still for that read-out and setting: next, B15: inactive: 0.529.
Still for that read-out and setting: under B16 stands inactive: 1.02; under B17, inactive: 1.22; under B18, inactive: 0.772.
Consider B19, for which the enrichment score is inactive: 1.4.

The record behind these values is the supplement of paper PMC10369915.
